From PubChem BioAssay AID686978 (National Center for Advancing Translational Sciences (NCATS), 2013)
The campaign covered roughly 420,000 compounds. About 64,000 (15%) were called active. This list was built around the results that the source calls inconclusive (neither active nor inactive); the mix of calls is not that of the screen. The call rests on the fitted dose curve; in most records, active means well fitted inhibition curve with a large enough effect; inconclusive means small, poorly fitted or top-dose-only effect; inactive means flat fitted curve, though single readings scatter. Potencies of inconclusive entries are left out as doubtful fits.

experiment: qHTS for Inhibitors of human tyrosyl-DNA phosphodiesterase 1 (TDP1): qHTS in cells in absence of CPT; settings: DT40 Tdp1-/- hTDP1 cells, no CPT, ATP luminescence, 48 h; activity change, negative = growth inhibition: at 46.2 µM (top of the series) unless noted; further: nearly all actives have a fitted effect of over 55% in size
In short: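 Readout: luminescence from CellTiter-Glo after 30 min in the dark at RT. Cells: DT40 Tdp1-/- with stable hTDP1, 400/well. Exposure: compounds alone, ≥48 hr, 37 °C.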
On the % scale 0 is the no-effect control and ±100 the full control effect; potency means the concentration at half of the fitted maximal effect; tags describe the fitted curve by direction and shape.

SMILES	Potency	activity change, negative = growth inhibition
COc1cccc(C(=O)CC(=O)C(=O)Nc2ccc(C)cc2Cl)c1	inconclusive [inhibitor, single point]	
O=C(COc1ccc(Cl)cc1)N1CCN(C(=O)c2cccs2)CC1	inactive	
CSc1ccc(CN(C)C(=O)CCNS(=O)(=O)c2ccc(C)c(C)c2)cc1	inconclusive [inhibitor, single point]	
CCOc1ccc(NC(=O)CN(C)C(=O)CCC2CCCCC2)cc1OCC	inactive	
O=C(NC(=S)Nc1ccccc1N1CCOCC1)c1ccco1	inconclusive [inhibitor, single point]	
CCCn1c(=O)c2ccccc2n2c(SCc3cc(=O)oc4ccc5ccccc5c34)nnc12	inconclusive [inhibitor, single point]	
CCOC(=O)c1noc2nc(C)n(CC(=O)NC(C)CC)c(=O)c12 (stereo not drawn)	inconclusive [inhibitor, full curve]	
O=[N+]([O-])c1cccc(COc2ccccc2CO)c1	inconclusive [inhibitor, partial curve]	
c1ccc2c(N3CCCCC3)ncnc2c1	active: 20.6 µM	
O=C(CCc1nnc(CCCCc2ccccc2)o1)NC(c1cccnc1)C(F)(F)F (stereo not drawn)	inconclusive [inhibitor, single point]	
COc1ccc(OC)c(NC(=O)CSc2ccc3ccccc3c2)c1		inconclusive: -33% [inhibitor]
Cc1cnc(C)c(Nc2nc(C(N)Cc3ccc(Cl)cc3)cs2)n1 (stereo not drawn)	active: 18.4 µM	
Cc1ccc(C(=O)C(C)OC(=O)CN2C(=O)NC3(CCCC3)C2=O)cc1C (stereo not drawn)	inactive	
CCOC(=O)c1nn(-c2cccc(OC)c2)c2nc(Nc3ccccc3)cc(=O)n12	inconclusive [inhibitor, single point]	
Cc1ccsc1C1NC(=O)c2ccccc2N1 (stereo not drawn)	inconclusive [inhibitor, single point]	
O=C(ONc1ccc(N=NC(=O)c2ccccc2O)cc1)c1ccccc1	active: 6.51 µM	
CCOc1ccccc1CNC(=O)c1ccc2c(c1)N(Cc1ccc(C)cc1)CCS2	active: 9.2 µM	
CCOc1ccc(NC(=O)CN(C)C(=O)CC2OC(=O)c3ccccc32)cc1OCC (stereo not drawn)	inactive	
CN(C)S(=O)(=O)c1cc(NC(=O)CN2CCN(c3ccccc3)CC2)ccc1Cl	inconclusive [inhibitor, single point]	
O=C(C1CCCN(S(=O)(=O)c2ccccc2)C1)N1CCN(c2ncccn2)CC1 (stereo not drawn)	inconclusive [inhibitor, single point]	
Cc1ccc(C(C(=O)NC(C)(C)C)N(Cc2cccnc2)C(=O)C(=O)NC2CCCCC2)o1 (stereo not drawn)	inactive	
Cc1ccccc1CN1CCN(CC(=O)NC(C)c2ccccc2)CC1 (stereo not drawn)	inactive	
COCCCN(C(=O)Cc1csc(-c2cccc(Cl)c2)n1)c1c(N)n(Cc2ccccc2)c(=O)[nH]c1=O	inconclusive [inhibitor, partial curve]	
Fc1ccccc1CCNc1nnnn1-c1ccccc1	inactive	
CC(=O)c1cccc(NC(=O)CSc2nc(=O)n(Cc3ccco3)c3c2CCC3)c1	inconclusive [inhibitor, partial curve]	

SMILES	Potency	activity change, negative = growth inhibition
N#Cc1nc(-c2ccc(F)cc2)oc1NCc1ccccc1	inconclusive [inhibitor, partial curve]	
COc1cc(C(=O)NCCCc2nc3ccccc3n2Cc2cc(C)ccc2C)cc(OC)c1OC	inconclusive [inhibitor, single point]	
CC(=O)c1cccc(NC(=O)CCc2nnc3ccc(NCc4ccc5c(c4)OCO5)nn23)c1	inactive	
Cc1oc(-c2cccc(Cl)c2)nc1CS(=O)(=O)CC(=O)NC(C)CCc1ccccc1 (stereo not drawn)	inconclusive [inhibitor, single point]	
O=C(CN1C(=O)CSc2ccc(S(=O)(=O)N3CCOCC3)cc21)NCCCN1CCc2ccccc2C1		inconclusive: -34.7% [inhibitor]
CCCCN(CC)C(=O)c1nn(C)c2c1CSc1ccccc1-2	active: 23.1 µM	
Nc1nonc1C(=O)NCCNC(=O)c1ccc(Cl)cc1	inactive	
CS(=O)(=O)N(CC(=O)N1CCOCC1)c1cc(Cl)ccc1Cl	inactive	
CCOC(=O)C1(Cc2cccc(Cl)c2)CCCN(C(=O)CCOC)C1 (stereo not drawn)	inconclusive [inhibitor, single point]	
COC(=O)c1ccc(-c2c(-c3ccccc3)ncc3cc(OC)c(OC)cc23)cc1	inconclusive [inhibitor, single point]	
O=c1oc(-c2ccccc2F)nc2c1cnn2-c1ccccc1	active: 23.1 µM	
Cc1cccc(N2CCN(C(=O)COc3ccc4c(c3)CCC4)CC2C)c1 (stereo not drawn)	inconclusive [inhibitor, single point]	
Cc1cc(C)nc(NC(=O)CCC2CCCC2)c1	inconclusive [inhibitor, partial curve]	
CN(C)C(=O)c1ccc(-c2ccc3ncnc(NC4CC4)c3c2)cc1	inconclusive [inhibitor, single point]	
O=C(c1cccc(C(=O)N2CCN(c3ccccc3F)CC2)c1)N1CCN(c2ccccc2F)CC1	active: 23.1 µM	
COc1ccc(-c2noc(N3CCC(C(=O)Nc4cccc(OC)c4)CC3)n2)cc1	inconclusive [inhibitor, single point]	
COc1ccc(N2CCN(C(=O)CCN3C(=O)c4ccccc4S3(=O)=O)CC2)cc1	inactive	
O=C(CSc1ccc(-c2cccs2)nn1)Nc1ccccc1C(F)(F)F	inconclusive [inhibitor, single point]	
Cc1ccc(NC(=O)CC2SC(=NCC3CCCO3)NC2=O)cc1Cl (stereo not drawn)	inconclusive [inhibitor, single point]	
CN(Cc1c(F)cccc1Cl)c1ccc(S(=O)(=O)N2CCOCC2)cn1	inconclusive [inhibitor, partial curve, poor fit]	
CC1(C)O[C@H]2[C@@H](O1)[C@@H](C(=O)Nc1ccccc1C(F)(F)F)O[C@@H]1OC(C)(C)O[C@@H]12	inconclusive [inhibitor, single point]	
Cn1nc(C(=O)Nc2cccnc2)c2ccccc2c1=O		inconclusive: -31.8% [inhibitor]
O=C(NCCc1ccccc1Cl)C1CCN(c2nc3ccccc3nc2C(F)(F)F)CC1	inconclusive [inhibitor, full curve, poor fit]	
CCOc1ccc(Br)cc1C(=S)N1CCCC1	inactive	
COc1ccc(C(NC(=O)CN2C(=O)NC3(CCc4ccccc43)C2=O)c2ccc(OC)cc2)cc1 (stereo not drawn)	inconclusive [inhibitor, single point]	

SMILES	Potency	activity change, negative = growth inhibition
O=C1CCCC2=C1C(c1cccs1)Nc1ccc3ncccc3c12 (stereo not drawn)	inconclusive [inhibitor, single point]	
CCc1nc2ccc(C(=O)NCCOc3ccc(OC)cc3)cn2c1N(C)Cc1ccc(N(C)C)cc1	inconclusive [inhibitor, single point]	
COc1cccc(OC)c1OCCNCC1COc2ccccc2O1 (stereo not drawn)	inactive	
COc1cc(OC)cc(-c2c(C#Cc3ccsc3)c3cc(-c4ccc(OC)c(F)c4)ccc3n2C)c1	inactive	
CC1CC(CC(=O)NC(=S)Nc2ccccc2Cl)C(=O)O1 (stereo not drawn)	inactive	
CN(CCCNC(=O)C1CCC(=O)N1Cc1ccccc1Cl)c1ccccc1 (stereo not drawn)	inconclusive [inhibitor, single point]	
CCc1cc(Br)ccc1NC(=O)C1CCCO1 (stereo not drawn)	inactive	
COCCCNC(=O)CCS(=O)(=O)Cc1ccc(C)cc1	inactive	
Cc1nc(NC(=O)C(C)(C)C)sc1-c1csc(N)n1	active: 23.1 µM	
O=C(CSc1nc2ccccc2c(=O)n1-c1ccccc1)NCC1CCCO1 (stereo not drawn)	inconclusive [inhibitor, partial curve, poor fit]	
COc1ccc(Cl)cc1NC(=O)C(C)Sc1nc2c(c(=O)[nH]1)CCCC2 (stereo not drawn)	inconclusive [inhibitor, single point]	
O=C(COc1ccc(Cl)cc1)Nc1cnn(Cc2c(Cl)cccc2Cl)c1	inactive	
CSc1ccc(/C=N/NC(=O)CNc2cccc3ccccc23)cc1	inactive	
CCc1ccccc1N1CC23C=CC(O2)C(C(=O)O)C3C1=O (stereo not drawn)	inactive	
COc1ccc(C(CNC(=O)c2cc3c(s2)CCC(C)C3)N2CCOCC2)cc1 (stereo not drawn)	inconclusive [inhibitor, single point]	
CCc1nc2c(OCc3cccc(Cl)c3)cccn2c1N(C)C(=O)C1CC1	inconclusive [inhibitor, single point]	
CC1CCCC(N2CCN(C(=O)c3cccc(F)c3)CC2)C1 (stereo not drawn)	inactive	
N#Cc1ccsc1NC(=O)c1cccc([N+](=O)[O-])c1	inconclusive [inhibitor, full curve]	
O=C(Nc1cccc(C(F)(F)F)c1)c1cccnc1N1CCCC1	inconclusive [inhibitor, partial curve]	
CCOc1ccc(C(=O)Nc2cnn(Cc3ccc(Cl)c(Cl)c3)c2)cc1	inconclusive [inhibitor, single point]	
O=C(Nc1nc2ccccc2s1)c1cnccn1	inconclusive [inhibitor, partial curve]	
Cc1nnc(Sc2nc3c(c(=O)n(C)c(=O)n3C)n2Cc2ccc(Cl)cc2)s1	active: 16.4 µM	
CC1CC2(CCCC2)N(C(=O)c2ccccc2)Cc2ccccc21 (stereo not drawn)	inconclusive [inhibitor, single point]	
